The record followed here is article doi:10.1101/756874, “Spontaneous oligomerization of BAK/BAX is suppressed by hetero-dimerization with MCL-1” (bioRxiv, 2019).

The data set deals with the molecule itself. Put plainly: SEC; proteins pre-incubated in detergent (PS20, C12E8 and others, at the multiples of CMC given in the legends); Superdex 200 Increase 10/300 GL, 50 mM sodium phosphate pH 7.0. Background: Size exclusion chromatography separates by hydrodynamic size, large species first.

B1: BAX ([…], […], C62S, C126S) (domain or fragment)
chain: not shown
notes: human BAX, […], without the C-terminal transmembrane helix; cysteines mutated to serines; Theoretical mass 18933.65 Da; source: E. coli C41(DE3), purified (chitin resin, intein self-cleavage with DTT, SEC); not shown: intein, C-terminal, cleaved
As to B1, the binding result is on record as “binds”.
